Experiment [1] deals with T1, human GalR1 (Homo sapiens, UniProt P47211).
T1 construct: expressed in transfected cells; host or cells: CHO (Flp-In, pcDNA5/FRT)
T1 sequence (P47211 1-349): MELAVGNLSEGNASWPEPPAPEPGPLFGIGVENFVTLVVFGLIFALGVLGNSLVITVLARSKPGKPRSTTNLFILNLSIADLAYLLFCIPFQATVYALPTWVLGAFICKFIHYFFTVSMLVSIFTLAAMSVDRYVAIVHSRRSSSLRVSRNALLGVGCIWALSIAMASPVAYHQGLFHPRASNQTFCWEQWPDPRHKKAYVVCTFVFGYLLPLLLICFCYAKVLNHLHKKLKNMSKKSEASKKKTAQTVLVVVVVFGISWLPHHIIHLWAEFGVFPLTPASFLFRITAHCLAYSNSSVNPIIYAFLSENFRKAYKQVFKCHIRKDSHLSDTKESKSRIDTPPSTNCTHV
Briefly: cAMP HTRF assay, CHO GalR1 cells. The format is cell-based. The settings on record: Table 7; mean +/− standard deviation; highest concentration tested 10 μM. How it is done: The CAMP dynamic 2 kit (Cisbio International) was used as a competitive immunoassay to measure Homogenous Time-Resolved Fluorescence (HTRF). […] Addition of detection reagent involved adding 5 μl d2 conjugated CAMP followed by 5 μl anti-CAMP cryptate conjugate. The two reagents were not pre-mixed; these were both prepared in cell lysis buffer and incubated at room temperature in the dark for one hour.

The target of experiment [2] is T2, human GalR2 (Homo sapiens, UniProt O43603).
T2 sequence (O43603 1-387): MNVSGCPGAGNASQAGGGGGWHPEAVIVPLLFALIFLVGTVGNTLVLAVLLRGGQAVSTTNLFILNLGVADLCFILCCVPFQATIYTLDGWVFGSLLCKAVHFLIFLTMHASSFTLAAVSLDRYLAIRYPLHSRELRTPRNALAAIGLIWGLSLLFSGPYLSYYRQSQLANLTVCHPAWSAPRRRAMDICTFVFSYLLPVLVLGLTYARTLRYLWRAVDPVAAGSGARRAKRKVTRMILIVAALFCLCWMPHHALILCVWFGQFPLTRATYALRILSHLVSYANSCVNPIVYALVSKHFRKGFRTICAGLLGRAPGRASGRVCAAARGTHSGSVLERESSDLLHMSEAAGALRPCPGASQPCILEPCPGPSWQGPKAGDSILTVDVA
Briefly: Calcium assay, CHO GalR2 cells (FLIPR). The settings on record: Table 7; mean +/− standard deviation; highest concentration tested 10 μM.

The values below come from patent US20260209301A1, “Galanin-2 Receptor Agonists” (LIFEARC, priority 2022, published 2026).

B1: Gal2-13FC GGS4: Gal2-13 FC fusion with […] linker; SEQ ID NO: 35 (protein)
chain: WTLNSAGYLLGPGGSGGSGGSGGSLEPKSSDKTHTCPPCTRUE[human IgG1 Fc not spelt out]
modifications: chains of the parent or of the whole protein
For the molecule B1, in experiment [1], the “GalR1 activity (cAMP assay), linker variants” value was 5.3 +/− 0.0. Besides, the “GalR2 activity (calcium assay), linker variants” value in experiment [2] is 6.2 +/− 0.1.
